In all, about 340,000 compounds went through this assay and about 12,000 (3.5%) were called active. This list was built around the results that the source calls inconclusive (neither active nor inactive); the mix of calls is not that of the screen. The call rests on the fitted dose curve; in most records, active means well fitted inhibition curve with a large enough effect; inconclusive means small, poorly fitted or top-dose-only effect, or another doubt; inactive means no such curve, though single readings can be large or run the other way. No potency is given beside an inconclusive call; the fits are too rough.
experiment: qHTS Assay for Inhibitors of Hepatitis C Virus (HCV); settings: Huh7.5.1 HCVcc-Cre (HCVcc is cell-culture hepatitis C virus) infection, luciferase reporter, 44 h; activity change, negative = inhibition: at 41.8 µM (top of the series) unless noted
How it was run: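 HCVcc-Cre virus at an moi near 0.5 was added right after compound to cells cultured 4 h from seeding (1,000 cells/well). Luciferase activity was determined 44 h later, 15 min after substrate addition at RT.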
On the % scale 0 is the no-effect control and ±100 the full control effect; potency means the concentration at half of the fitted maximal effect; tags describe the fitted curve by direction and shape.

| SMILES | Potency | activity change, negative = inhibition |
| --- | --- | --- |
| CS(=O)(=O)c1ccc(C(=O)OCC(=O)NC23CC4CC(CC(C4)C2)C3)cc1[N+](=O)[O-] | inconclusive [inhibitor, single point] | – |
| Cc1ccn(C(C)CC(=O)N2CCc3ccccc32)n1 (centres undefined) | – | inactive: 0.131% |
| COc1cc2ccccc2cc1C(=O)NC1CCCC1 | inconclusive [inhibitor, partial curve] | – |
| CCOC(=O)/C(C#N)=C/c1cccn1-c1ccc(Cl)cc1 | inconclusive [inhibitor, full curve] | – |
| COc1ccc(OCc2nc3ccccc3[nH]2)cc1 | inconclusive [inhibitor, single point] | – |
| CCC(C(=O)Nc1cc(C)nn1-c1nc(C)cc(C)n1)c1ccccc1 (centres undefined) | inconclusive [inhibitor, partial curve] | – |
| CCC(=O)Nc1nc2ccccc2n1Cc1ccccc1Cl | inconclusive [inhibitor, single point] | – |
| Cc1ccccc1CC(=O)OCC(=O)Nc1ccc(C)c(S(=O)(=O)N2CCCCC2)c1 | inconclusive [inhibitor, partial curve] | – |
| CCN(C(=O)c1ccc(C(C)(C)C)cc1)c1nnc(Cn2nnc3ccccc32)s1 | active: 1 µM | – |
| Cc1c(C(=O)NCCCn2ccnc2)oc2ccccc12 | – | inactive: -9.42% |
| NC(=O)c1ccsc1NC(=O)CN1C(=O)NC2(CCCCC2)C1=O | – | inactive: 17% |
| C=CCNC(=S)N/N=C/c1cn(-c2ccccc2)nc1-c1ccc(OC)cc1 | – | inactive: -13.4% |
| COc1ccc(-c2cc(C)no2)cc1S(=O)(=O)N(C)Cc1ccco1 | inconclusive [inhibitor, single point] | – |
| O=C(NNc1nc(-c2ccc(F)cc2)cs1)c1ccccc1 | inconclusive [inhibitor, single point] | – |
| C=CCOc1ccc(C2C(C#N)=C(N)N(Nc3ccccc3)C3=C2C(=O)CC(C)(C)C3)cc1OC (centres undefined) | inconclusive [inhibitor, single point] | – |
| O=C(CCCC1=NS(=O)(=O)c2ccccc2N1)OCc1ccc(Cl)cc1 | – | inactive: -11.9% |
| Clc1ccc(COn2c(-c3ccc(Cl)cc3Cl)nc3ncccc32)cc1 | inconclusive [inhibitor, single point] | – |
| COc1ccc(/C=N/Nc2cc(N3CCOCC3)nc(C)n2)c(OC)c1 | inconclusive [inhibitor, partial curve] | – |
| Cc1nnc(-c2cnn(C)c2N)n1Cc1cccc(Cl)c1 | inconclusive [inhibitor, single point] | – |
| Cc1cc(S(=O)(=O)N2CCCOC2CNC(=O)C(=O)NCc2cccs2)ccc1F (centres undefined) | – | inactive: -19.5% |
| Cc1nc2ccc(NC(=O)Cc3ccsc3)cc2s1 | – | inactive: -7.13% |
| CCC1(c2ccc(OC)cc2)NC(=O)N(CC(=O)NC2CCCCC2C)C1=O (centres undefined) | – | inactive: -14.9% |
| CCC(C)N(C(=O)CSc1nc(C)c(C)c(C)c1C#N)C1CCS(=O)(=O)C1 (centres undefined) | inconclusive [inhibitor, single point] | – |
| C/C(Cl)=C/Cn1c(=O)c2c(nc(Br)n2Cc2ccccc2)n(C)c1=O | inconclusive [inhibitor, partial curve] | – |
| O=C(c1ccc(-c2cccc([N+](=O)[O-])c2)o1)N1CCN(c2ccc([N+](=O)[O-])cc2)CC1 | inconclusive [inhibitor, partial curve] | – |

| SMILES | Potency | activity change, negative = inhibition |
| --- | --- | --- |
| Cc1csc2c(=O)n(CCO)c(=O)[nH]c12 | – | inactive: 20% |
| CC(=O)c1cc(Cl)ccc1OCC(=O)NC1CCCC1 | inconclusive [inhibitor, single point] | – |
| N#CCCN1CCN(C(CNS(=O)(=O)c2ccc(Cl)cc2)c2ccccc2)CC1 (centres undefined) | – | inactive: 12.9% |
| O=C(CN1CCN(Cc2ccc(Cl)cc2)C1=O)NCCCN1CCN(c2ccc(F)cc2)CC1 | active: 10 µM | – |
| O=C(N/N=C/c1cccc(Oc2ccc([N+](=O)[O-])cc2[N+](=O)[O-])c1)c1cncc(Br)c1 | inconclusive [inhibitor, partial curve] | – |
| COc1ccc(NC(=O)c2cccnc2)cc1OCC(C)C | inconclusive [inhibitor, single point] | – |
| Cc1cccc(N2CCN(C(=O)c3ccc(Cl)c(NC4=NC5CS(=O)(=O)CC5S4)c3)CC2C)c1 (centres undefined) | – | inactive: 4.15% |
| O=C(CCN1C(=O)/C(=C/c2ccccc2Cl)SC1=S)NCCCN1CCOCC1 | inconclusive [inhibitor, single point] | – |
| CC(=O)Nc1cccc(N=NN2CCCCC2)c1 | – | inactive: 18.6% |
| CC(C)Oc1cccc(C(=O)Nc2ccc(NC(=O)c3ccco3)cc2)c1 | inconclusive [inhibitor, partial curve] | – |
| S=c1[nH]c2ncccc2o1 | – | inactive: 5.52% |
| C/C(=N\NC(=O)c1ccc(CN2CCOCC2)cc1)c1ccc([N+](=O)[O-])cc1 | active: 11.2 µM | – |
| Cc1ccc(OCCC(=O)OCC(=O)NCCc2ccc(Cl)cc2)cc1 | – | inactive: 4.22% |
| N#CC1=C(N)N(c2ncn[nH]2)C2=C(C(=O)CCC2)C1c1ccccc1 (centres undefined) | – | inactive: 6.71% |
| Cc1ccc(C(=O)CN(Cc2ccccc2)C2=NCCS2)cc1 | inconclusive [inhibitor, partial curve] | – |
| CCOc1ccc(CCNc2ccc3nnc(-c4ccccc4)n3n2)cc1OCC | inconclusive [inhibitor, full curve] | – |
| COc1cc2c3c(n(C)c(=O)c2cc1OC)-c1cc2c(cc1C3=O)OCO2 | inconclusive [inhibitor, single point] | – |
| COc1ccc2oc(C(=O)OCC(=O)Nc3cccc(S(=O)(=O)N4CCOCC4)c3)c(C)c2c1 | inconclusive [inhibitor, partial curve] | – |
| CCCCOc1ccc(/C=N/NC(=O)C2CCCNC2=O)cc1 (centres undefined) | inconclusive [inhibitor, single point] | – |
| O=C(Nc1ccc(S(=O)(=O)Nc2ccccc2)cc1)c1ccc(CN2CCOCC2)cc1 | active: 2.24 µM | – |
| O=C(OCCNc1nc(-c2ccccc2)nc2ccccc12)c1ccncc1 | active: 15.8 µM | – |
| CCN(CC)C(=O)CSc1nnc([C@@H](N)C(C)C)o1 | – | inactive: -7.02% |
| COC(=O)C1=C(C)N(Cc2ccccc2)C(=O)N[C@H]1c1cccc(C(F)(F)F)c1 | active: 0.398 µM | – |
| CCCCNC(=O)C1CCN(S(=O)(=O)c2cnc[nH]2)CC1 | inconclusive [inhibitor, single point] | – |
| COc1cc(CCC(=O)Nc2ccc(S(=O)(=O)N3CCCC3)cc2)cc(OC)c1OC | inconclusive [inhibitor, partial curve] | – |

| SMILES | Potency | activity change, negative = inhibition |
| --- | --- | --- |
| C[C@]12CCC(=O)C=C1CCC1C2CC[C@@]2(C)C1CC[C@@]2(O)CC#N (some centres undefined) | – | inactive: 14.7% |
| CCCN1CCC(=O)N(CCSc2ccc(OC)cc2)CC1 | – | inactive: -28.8% |
| Cc1cc(Cl)c2oc(C(=O)NCC(C)(C)N3CCOCC3)c(C)c2c1 | inconclusive [inhibitor, partial curve] | – |
| O=C(Nc1ccc(-c2nc3ccccc3s2)c(OC(=O)c2ccccc2)c1)c1ccccc1 | inconclusive [inhibitor, single point] | – |
| CN(C)CCCN(C(=O)c1ccc(S(=O)(=O)N2CCc3ccccc3C2)cc1)c1nc2c(F)cccc2s1 | inconclusive [inhibitor, single point] | – |
| COc1cc2c(cc1OC)C(C)N(C(=O)c1cccs1)CC2 (centres undefined) | inconclusive [inhibitor, partial curve] | – |
| Cc1nnc(NC(=O)C2=COCCO2)s1 | – | inconclusive: -41.8% [inhibitor] |
| CCOc1ccccc1CNC(=O)Cn1ccc2cc(S(=O)(=O)N3CCCCCC3)ccc21 | inconclusive [inhibitor, single point] | – |
| CCOc1cc(NC(=O)c2ccco2)c(OCC)cc1NC(=O)c1ccco1 | inconclusive [inhibitor, partial curve, poor fit] | – |
| COc1cc(C(=O)NC2CCN(CC(=O)Nc3cccc(C)c3C)CC2)cc(OC)c1OC | – | inactive: 0.518% |
| CCCCn1c(SCC(N)=O)nc2sc3c(c2c1=O)CCC3 | inconclusive [inhibitor, partial curve] | – |
| C=C(C)CSc1nnc(-c2cccc(Cl)c2)n1N | – | inactive: -9.02% |
| CCCNc1nc(Nc2ccc(C)cc2)nc(N2CCCC2)n1 | active: 10 µM | – |
| CCCC1CCC(c2ccc(OCC)cc2)=CC1=O (centres undefined) | inconclusive [inhibitor, single point] | – |
| CCCc1[nH]n(-c2ccc([N+](=O)[O-])cc2)c(=O)c1C=NCCCn1ccnc1 | inconclusive [inhibitor, partial curve] | – |
| CC(C)(C)[C@H]1C=C(C(N)=O)O[C@@H](OCc2ccc(CO)cc2)C1 | – | inactive: -4.06% |
| CC1Oc2ccccc2C=C1/C=N/Nc1ccc(C(=O)O)cc1 (centres undefined) | – | inactive: 2.04% |
| CC(=O)Nc1c(Br)cc2c(c1Br)Cc1cc([N+](=O)[O-])ccc1-2 | inconclusive [inhibitor, single point] | – |
| NC(=O)c1ccsc1NC(=O)CSc1nnc(C2CC2)n1Cc1ccccc1 | – | inactive: -3.62% |
| c1cnc(SCCOc2cccc3ccccc23)nc1 | inconclusive [inhibitor, single point] | – |
| CN(C)c1ccc(S(=O)(=O)N2CCCCC2)cc1NC(=O)C1=NN(c2ccccc2)C(=O)CC1 | – | inactive: -2.74% |
| Cc1ccc(/C=N/NC(=O)c2cc3c(s2)CCCC3)o1 | – | inactive: -15.7% |
| Cc1c(C)n(CCc2ccccc2)c2ncnc(NCCO)c12 | – | inactive: -25.5% |
| COc1cccc(CN2CCN(Cc3cccc(Br)c3)CC2)c1OC | inconclusive [inhibitor, partial curve, poor fit] | – |

— PubChem BioAssay AID651820 (National Center for Advancing Translational Sciences (NCATS), 2012)
